{"source": "the supplement of paper PMC4604168 (melanoma cell lines)", "note": "The other results are listed elsewhere or left out. Single values are uncertain, as repeats are few or missing.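 Also: cell number obtained by counting DAPI-stained nuclei in high-throughput microscope images with image analysis software, screen run in 1,536-well plates.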", "data": [{"test_system": "UACC257", "experiment": "cell count relative to DMSO control; higher = more viable cells", "details": "library dose: low library concentration; 72 h", "units": {"cell count": "%"}, "values": [{"smiles": "O=C(/C=C/c1cccnc1)NCCCCC1CCN(C(=O)c2ccccc2)CC1", "note": "+ CCN(CC)CCCCNc1ncc2cc(-c3cc(OC)cc(OC)c3)c(NC(=O)NC(C)(C)C)nc2n1 [PD173074] (first compound 0.01 µM, partner dose 0.1 µM)", "cell count": 94.2}, {"smiles": "CC1(C)CCC(c2ccc(Cl)cc2)=C(CN2CCN(c3ccc(C(=O)NS(=O)(=O)c4ccc(N[C@H](CCN5CCOCC5)CSc5ccccc5)c(S(=O)(=O)C(F)(F)F)c4)cc3)CC2)C1", "note": "+ O=C(Nc1cccc(Cl)c1)Nc1ncc(CCNc2ncnc3ccsc23)s1 [SNS314] (first compound 0.4 µM, partner dose 0.0008 µM)", "cell count": 81.1}, {"smiles": "Cc1ccc(Nc2nccc(N(C)c3ccc4c(C)n(C)nc4c3)n2)cc1S(N)(=O)=O", "note": "[Pazopanib] + CC(C)CCN1c2nc(Nc3cc(F)c(O)c(F)c3)ncc2N(C)C(=O)C1C [BID1870] (first compound 0.4 µM, partner dose 0.2 µM)", "cell count": 103}, {"smiles": "CC1(C)CCC(c2ccc(Cl)cc2)=C(CN2CCN(c3ccc(C(=O)NS(=O)(=O)c4ccc(N[C@H](CCN5CCOCC5)CSc5ccccc5)c(S(=O)(=O)C(F)(F)F)c4)cc3)CC2)C1", "note": "+ COc1ccc2c(c1)CCC1C2CCC2(C)C(NCCCCCCN3C(=O)C=CC3=O)CCC12 [U73122] (first compound 0.4 µM, partner dose 0.4 µM)", "cell count": 71.9}, {"smiles": "Cc1ccc(Nc2nccc(N(C)c3ccc4c(C)n(C)nc4c3)n2)cc1S(N)(=O)=O", "note": "[Pazopanib] + O=C(O)c1ccc(-c2c[nH]c3ncc(-c4ccccc4)cc23)cc1C1CCCC1 [GSK650394] (first compound 0.4 µM, partner dose 0.16 µM)", "cell count": 110}, {"smiles": "O=C(/C=C/c1cccnc1)NCCCCC1CCN(C(=O)c2ccccc2)CC1", "note": "+ NCC(=O)Nc1ccc(-n2nc(C(F)(F)F)cc2-c2ccc3c(ccc4ccccc43)c2)cc1 [OSU03012] (first compound 0.01 µM, partner dose 1 µM)", "cell count": 109}, {"smiles": "Cc1ccc(Nc2nccc(N(C)c3ccc4c(C)n(C)nc4c3)n2)cc1S(N)(=O)=O", "note": "[Pazopanib] + C=CCn1c(=O)c2cnc(Nc3ccc(N4CCN(C)CC4)cc3)nc2n1-c1cccc(C(C)(C)O)n1 [MK1775] (first compound 0.4 µM, partner dose 0.02 µM)", "cell count": 85.5}, {"smiles": "Cc1ccc(Nc2nccc(N(C)c3ccc4c(C)n(C)nc4c3)n2)cc1S(N)(=O)=O", "note": "[Pazopanib] + COC(=O)c1sccc1S(=O)(=O)Nc1ccc(Nc2ccccc2)cc1OC [GSK0660] (first compound 0.4 µM, partner dose 1 µM)", "cell count": 85.1}]}, {"test_system": "UACC62", "experiment": "cell count relative to DMSO control; melanoma cells; higher = more viable cells", "details": "library dose: low library concentration; 72 h", "units": {"cell count": "%"}, "values": [{"smiles": "CC1(C)CCC(c2ccc(Cl)cc2)=C(CN2CCN(c3ccc(C(=O)NS(=O)(=O)c4ccc(N[C@H](CCN5CCOCC5)CSc5ccccc5)c(S(=O)(=O)C(F)(F)F)c4)cc3)CC2)C1", "note": "+ C[C@]1(c2nc3c(C(N)=O)cccc3[nH]2)CCCN1 [Veliparib] (first compound 0.4 µM, partner dose 1.4 µM)", "cell count": 81.9}, {"smiles": "Cc1ccc(Nc2nccc(N(C)c3ccc4c(C)n(C)nc4c3)n2)cc1S(N)(=O)=O", "note": "[Pazopanib] + CC(=O)c1c(C)c2cnc(Nc3ccc(N4CCNCC4)cn3)nc2n(C2CCCC2)c1=O [palbociclib] (first compound 0.4 µM, partner dose 0.04 µM)", "cell count": 68.9}, {"smiles": "O=C(/C=C/c1cccnc1)NCCCCC1CCN(C(=O)c2ccccc2)CC1", "note": "+ CC(=O)O[C@@]12CO[C@@H]1C[C@H](O)[C@@]1(C)C(=O)[C@H](O)C3=C(C)[C@@H](OC(=O)[C@H](O)[C@@H](NC(=O)OC(C)(C)C)c4ccccc4)C[C@@](O)([C@@H](OC(=O)c4ccccc4)[C@H]21)C3(C)C [Docetaxel] (first compound 0.01 µM, partner dose 0.0001 µM)", "cell count": 52.1}, {"smiles": "O=C(/C=C/c1cccnc1)NCCCCC1CCN(C(=O)c2ccccc2)CC1", "note": "+ COc1ccc(C2=N[C@@H](c3ccc(Cl)cc3)[C@@H](c3ccc(Cl)cc3)N2C(=O)N2CCNC(=O)C2)c(OC(C)C)c1 [Nutlin-3] (first compound 0.01 µM, partner dose 0.1 µM)", "cell count": 79.5}, {"smiles": "O=C(/C=C/c1cccnc1)NCCCCC1CCN(C(=O)c2ccccc2)CC1", "note": "+ COc1ccc(Cl)c(Nc2nc3ccccc3nc2NS(=O)(=O)c2cccc(NC(=O)C(C)(C)N)c2)c1 [XL147] (first compound 0.01 µM, partner dose 0.8 µM)", "cell count": 118}, {"smiles": "O=C(/C=C/c1cccnc1)NCCCCC1CCN(C(=O)c2ccccc2)CC1", "note": "+ CCN(CC)CCCCNc1ncc2cc(-c3cc(OC)cc(OC)c3)c(NC(=O)NC(C)(C)C)nc2n1 [PD173074] (first compound 0.01 µM, partner dose 0.1 µM)", "cell count": 93.5}, {"smiles": "O=C(/C=C/c1cccnc1)NCCCCC1CCN(C(=O)c2ccccc2)CC1", "note": "+ C[C@]1(O)C[C@@H](c2nc(-c3ccc4ccc(-c5ccccc5)nc4c3)c3c(N)nccn32)C1 [OSI906] (first compound 0.01 µM, partner dose 0.4 µM)", "cell count": 100}, {"smiles": "Cc1ccc(Nc2nccc(N(C)c3ccc4c(C)n(C)nc4c3)n2)cc1S(N)(=O)=O", "note": "[Pazopanib] + CS(=O)(=O)CCNCc1ccc(-c2ccc3ncnc(Nc4ccc(OCc5cccc(F)c5)c(Cl)c4)c3c2)o1 [lapatinib] (first compound 0.4 µM, partner dose 0.8 µM)", "cell count": 100}, {"smiles": "CC1(C)CCC(c2ccc(Cl)cc2)=C(CN2CCN(c3ccc(C(=O)NS(=O)(=O)c4ccc(N[C@H](CCN5CCOCC5)CSc5ccccc5)c(S(=O)(=O)C(F)(F)F)c4)cc3)CC2)C1", "note": "+ O=C(Nc1cccc(Cl)c1)Nc1ncc(CCNc2ncnc3ccsc23)s1 [SNS314] (first compound 0.4 µM, partner dose 0.0008 µM)", "cell count": 91.3}, {"smiles": "O=C(/C=C/c1cccnc1)NCCCCC1CCN(C(=O)c2ccccc2)CC1", "note": "+ CO[C@H]1C[C@@H]2CC[C@@H](C)[C@@](O)(O2)C(=O)C(=O)N2CCCC[C@H]2C(=O)O[C@H]([C@H](C)C[C@@H]2CC[C@@H](OCCO)[C@H](OC)C2)CC(=O)[C@H](C)/C=C(\\C)[C@@H](O)[C@@H](OC)C(=O)[C@H](C)C[C@H](C)/C=C/C=C/C=C/1C [everolimus] (first compound 0.01 µM, partner dose 0.02 µM)", "cell count": 82.1}, {"smiles": "CC1(C)CCC(c2ccc(Cl)cc2)=C(CN2CCN(c3ccc(C(=O)NS(=O)(=O)c4ccc(N[C@H](CCN5CCOCC5)CSc5ccccc5)c(S(=O)(=O)C(F)(F)F)c4)cc3)CC2)C1", "note": "+ CO[C@H]1C[C@@H]2CC[C@@H](C)[C@@](O)(O2)C(=O)C(=O)N2CCCC[C@H]2C(=O)O[C@H]([C@H](C)C[C@@H]2CC[C@@H](OCCO)[C@H](OC)C2)CC(=O)[C@H](C)/C=C(\\C)[C@@H](O)[C@@H](OC)C(=O)[C@H](C)C[C@H](C)/C=C/C=C/C=C/1C [everolimus] (first compound 0.4 µM, partner dose 0.02 µM)", "cell count": 65.7}, {"smiles": "O=C(/C=C/c1cccnc1)NCCCCC1CCN(C(=O)c2ccccc2)CC1", "note": "+ C#Cc1cccc(Nc2ncnc3cc(OCCOC)c(OCCOC)cc23)c1 [erlotinib] (first compound 0.01 µM, partner dose 0.8 µM)", "cell count": 95.8}, {"smiles": "CC1(C)CCC(c2ccc(Cl)cc2)=C(CN2CCN(c3ccc(C(=O)NS(=O)(=O)c4ccc(N[C@H](CCN5CCOCC5)CSc5ccccc5)c(S(=O)(=O)C(F)(F)F)c4)cc3)CC2)C1", "note": "+ Cn1cnc2c(F)c(Nc3ccc(Br)cc3Cl)c(C(=O)NOCCO)cc21 [selumetinib] (first compound 0.4 µM, partner dose 0.015 µM)", "cell count": 91.7}, {"smiles": "O=C(/C=C/c1cccnc1)NCCCCC1CCN(C(=O)c2ccccc2)CC1", "note": "+ Cn1cnc2c(F)c(Nc3ccc(Br)cc3Cl)c(C(=O)NOCCO)cc21 [selumetinib] (first compound 0.01 µM, partner dose 0.015 µM)", "cell count": 81.6}, {"smiles": "Cc1ccc(Nc2nccc(N(C)c3ccc4c(C)n(C)nc4c3)n2)cc1S(N)(=O)=O", "note": "[Pazopanib] + CC(C)CCN1c2nc(Nc3cc(F)c(O)c(F)c3)ncc2N(C)C(=O)C1C [BID1870] (first compound 0.4 µM, partner dose 0.2 µM)", "cell count": 87.1}, {"smiles": "CC1(C)CCC(c2ccc(Cl)cc2)=C(CN2CCN(c3ccc(C(=O)NS(=O)(=O)c4ccc(N[C@H](CCN5CCOCC5)CSc5ccccc5)c(S(=O)(=O)C(F)(F)F)c4)cc3)CC2)C1", "note": "+ COc1ccc2c(c1)CCC1C2CCC2(C)C(NCCCCCCN3C(=O)C=CC3=O)CCC12 [U73122] (first compound 0.4 µM, partner dose 0.4 µM)", "cell count": 93.6}, {"smiles": "O=C(/C=C/c1cccnc1)NCCCCC1CCN(C(=O)c2ccccc2)CC1", "note": "+ Cc1cn(-c2cc(NC(=O)c3ccc(C)c(Nc4nccc(-c5cccnc5)n4)c3)cc(C(F)(F)F)c2)cn1 [nilotinib] (first compound 0.01 µM, partner dose 0.2 µM)", "cell count": 88.5}, {"smiles": "Cc1ccc(Nc2nccc(N(C)c3ccc4c(C)n(C)nc4c3)n2)cc1S(N)(=O)=O", "note": "[Pazopanib] + NC(=O)c1ccc(N(C(N)=O)c2c(F)cccc2F)nc1-c1ccc(F)cc1F [VX702] (first compound 0.4 µM, partner dose 0.4 µM)", "cell count": 98.4}, {"smiles": "Cc1ccc(Nc2nccc(N(C)c3ccc4c(C)n(C)nc4c3)n2)cc1S(N)(=O)=O", "note": "[Pazopanib] + O=C(O)c1ccc(-c2c[nH]c3ncc(-c4ccccc4)cc23)cc1C1CCCC1 [GSK650394] (first compound 0.4 µM, partner dose 0.16 µM)", "cell count": 104}]}]}
